From the antibiotic and cytotoxicity screens of Wong et al. (2023)
This is one part of the list.

test system: HSkMC (human skeletal muscle cells); assay: cytotoxicity call (relative viability < 0.9); details: 10 µM

Structure (SMILES)	cytotoxicity call
COc1ccc(S(=O)(=O)N(C)C[C@@H]2Oc3ccc(NC(=O)Cc4ccccc4)cc3C(=O)N([C@H](C)CO)C[C@H]2C)cc1	inactive
C[C@@H]1CCCCO[C@@H](CN(C)S(=O)(=O)c2ccc(F)cc2)[C@H](C)CN([C@@H](C)CO)C(=O)c2cc(NS(C)(=O)=O)ccc2O1	inactive
Cc1ccc(S(=O)(=O)Nc2ccc3c(c2)C(=O)N([C@H](C)CO)C[C@H](C)[C@@H](CN(C)C(=O)NC2CCCCC2)OCCCC[C@@H](C)O3)cc1	inactive
Cc1ccc(S(=O)(=O)N(C)C[C@H]2OCCCC[C@H](C)Oc3ccc(NC(=O)Nc4cccc5ccccc45)cc3C(=O)N([C@@H](C)CO)C[C@H]2C)cc1	inactive
O=C(Cc1ccncc1)NCC[C@@H]1CC[C@@H](NC(=O)C2CCOCC2)[C@H](CO)O1	inactive
O=C(Cn1cc([N+](=O)[O-])cn1)n1cccn1	inactive
CCC(c1ccc(O)cc1)C(CC)c1ccc(O)cc1 (stereo unspecified)	inactive
CC(C)NC(=O)Nc1ccc2c(c1)C(=O)N(C)[C@H]1CC[C@H](CC(=O)NCc3ccc(F)cc3)O[C@@H]1CO2	inactive
C[C@H](CO)N1C[C@H](C)[C@H](CN(C)C(=O)Nc2cccc3ccccc23)OCCCC[C@H](C)Oc2ccc(NC(=O)c3ccccc3)cc2C1=O	inactive
C[C@H](CO)N1C[C@H](C)[C@H](CN(C)CC2CC2)Oc2ccc(NC(=O)CCN3CCOCC3)cc2CC1=O	inactive
COc1cc2c(cc1OC)CN(C(=O)[C@H]1[C@@H]3C(=O)O[C@@H](c4ccccc4)[C@@H](c4ccccc4)N3[C@@H](c3ccc(O)cc3)[C@]13C(=O)Nc1ccccc13)CC2	inactive
C[C@@H]1CCCCO[C@@H](CN(C)S(=O)(=O)c2ccc(Cl)cc2)[C@H](C)CN([C@H](C)CO)C(=O)c2cc(NC(=O)Nc3ccc4c(c3)OCO4)ccc2O1	inactive
C=CCC[C@@H](Cc1ccc(F)cc1)C(=O)O[C@H](CNC(=O)[C@@H](CC=C)CC(=O)N[C@H](CO)Cc1ccccc1)c1ccccc1	inactive
CC(C)C[C@H]1NC(=O)[C@@H](C)NC(=O)[C@@]23C(=O)N[C@@H](Cc4ccccc4)[C@H]2[C@H](C)[C@@]2(C)O[C@H]2[C@@H]3/C=C/C/C=C\CNC1=O	inactive
C[C@H]1CN([C@@H](C)CO)C(=O)c2cc(NC(=O)CCCN(C)C)ccc2O[C@@H]1CN(C)Cc1ccncc1	inactive
C[C@H](CO)N1C[C@H](C)[C@@H](CN(C)C(=O)Nc2ccccc2C(F)(F)F)OCc2cnnn2CCCC1=O	inactive

Structure (SMILES)	cytotoxicity call
COC1=CC(=O)C(O)=CC1=CC=Cc1ccccc1	active
C[C@H]1CN([C@@H](C)CO)C(=O)c2cc(NC(=O)Cc3cn(C)c4ccccc34)ccc2O[C@@H]1CN(C)Cc1ccc(-c2ccccc2)cc1	inactive
CN(C)CCC(=O)N1CCNCC1	inactive
O=C(C[C@@H]1CC[C@@H]2[C@H](COC[C@@H](O)CN2C(=O)Nc2ccc(C(F)(F)F)cc2)O1)NCc1ccncn1	inactive
COc1ccc(NC(=O)N(C)C[C@@H]2OCCCC[C@@H](C)Oc3ccc(NC(=O)NC4CCCCC4)cc3C(=O)N([C@H](C)CO)C[C@H]2C)cc1	inactive
C[C@@H]1CN([C@@H](C)CO)C(=O)c2cccc(NS(=O)(=O)c3cn(C)cn3)c2O[C@@H]1CN(C)CC1CCCCC1	inactive
C[C@H]1CN([C@@H](C)CO)C(=O)c2cc(NC(=O)c3ccncc3)ccc2O[C@@H]1CN(C)S(=O)(=O)c1ccccc1	inactive
CNC(=O)[C@@H](c1ccccc1)N1CCc2cc(OC)c(OC)cc2[C@@H]1CCc1ccc(C(F)(F)F)cc1	inactive
Cc1cc(C(=O)O)n[nH]1	inactive
C[C@H](CO)N1C[C@H](C)[C@@H](CN(C)C(=O)Nc2ccc(F)cc2)Oc2ccc(NC(=O)C3CC3)cc2CC1=O	inactive
CC(C)NC(=O)Nc1cccc2c1O[C@@H](CN(C)S(=O)(=O)c1cn(C)cn1)[C@@H](C)CN([C@H](C)CO)C2=O	inactive
C[C@H]1CN([C@@H](C)CO)C(=O)c2cc(C#CC(C)(C)O)cnc2O[C@@H]1CN(C)C(=O)CN(C)C	inactive
NCCCCCC(O)(P(=O)(O)O)P(=O)(O)O	inactive
CC1(C)C2CCC1(C)C(O)C2 (stereo unspecified)	inactive
COc1ccc(S(=O)(=O)Nc2ccc3c(c2)C(=O)N([C@H](C)CO)C[C@@H](C)[C@@H](CN(C)Cc2ccc(C(=O)O)cc2)OCCCC[C@@H](C)O3)cc1	inactive
